This is one part of the list. Many values rest on one well or one pass, so single values are uncertain.
Columns and labels:
Assay in all cases: cell count relative to DMSO control; melanoma cells; higher = more viable cells
Details in all cases: library dose: standard library concentration; 72 h
[1] = system: G361
[2] = system: IPC-298
[3] = system: IST-MEL1
[4] = system: LB2518-MEL
[5] = system: LOXIMVI
[6] = system: MEL-HO
[7] = system: MZ2-MEL
[8] = system: MeWo
[9] = system: RPMI7951
[10] = system: RVH-421
[11] = system: SkMel28
[12] = system: SkMel2
[13] = system: SkMel30
[14] = system: SkMel5
[15] = system: UACC257
[16] = system: UACC62
[17] = system: WM115
[18] = system: WM1716
[19] = system: WM1745
[20] = system: WM3526
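Note: cells treated in 1,536-well plates, then fixed and DAPI-stained, with nuclei counted from automated high-throughput microscope images.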

SMILES	cell count [1] [%]	cell count [2] [%]	cell count [3] [%]	cell count [4] [%]	cell count [5] [%]	cell count [6] [%]	cell count [7] [%]	cell count [8] [%]	cell count [9] [%]	cell count [10] [%]	cell count [11] [%]	cell count [12] [%]	cell count [13] [%]	cell count [14] [%]	cell count [15] [%]	cell count [16] [%]	cell count [17] [%]	cell count [18] [%]	cell count [19] [%]	cell count [20] [%]
N#CC[C@H](C1CCCC1)n1cc(-c2ncnc3[nH]ccc23)cn1 [ruxolitinib] + COc1ccc(C2=N[C@@H](c3ccc(Cl)cc3)[C@@H](c3ccc(Cl)cc3)N2C(=O)N2CCNC(=O)C2)c(OC(C)C)c1 [Nutlin-3] (first compound 5 µM, partner dose 0.5 µM)	70	104	108	121	69.3	98.7	104	108	81.7	73.6	132	134	129	90.9	86.8	60.4	106	76.3	76.1	136
Cc1cc(Nc2cc(N3CCN(C)CC3)nc(Sc3ccc(NC(=O)C4CC4)cc3)n2)n[nH]1 [Tozasertib] + CO[C@@H]1[C@H](N(C)C(=O)c2ccccc2)C[C@H]2O[C@]1(C)n1c3ccccc3c3c4c(c5c6ccccc6n2c5c31)C(=O)NC4 [Midostaurin] (first compound 0.03 µM, partner dose 0.4 µM)	46.4	68.9	68.9	62.5	50.8	64.2	63	57.2	38.6	64.3	86	42.1	78.9	59.3	60.3	66.3	47.5	30.3	28.2	75.7
N#CC[C@H](C1CCCC1)n1cc(-c2ncnc3[nH]ccc23)cn1 [ruxolitinib] + Cc1cn(-c2cc(NC(=O)c3ccc(C)c(Nc4nccc(-c5cccnc5)n4)c3)cc(C(F)(F)F)c2)cn1 [nilotinib] (first compound 5 µM, partner dose 1 µM)	77	89.3	90.2	126	136	61.7	74.7	83	76.8	89.6	93	77.3	95.3	58.7	104	90.9	98.8	90.3	85.3	81.4
CC[C@]1(O)C[C@H]2CN(CCc3c([nH]c4ccccc34)[C@@](C(=O)OC)(c3cc4c(cc3OC)N(C=O)[C@H]3[C@@](O)(C(=O)OC)[C@H](OC(C)=O)[C@]5(CC)C=CCN6CC[C@]43[C@@H]65)C2)C1 [vincristine] + OCCn1cc(-c2cnc3nnn(Cc4ccc5ncccc5c4)c3n2)cn1 [PF04217903] (first compound 0.0005 µM, partner dose 5 µM)	106	126	95.9	93.6	108	95.5	117	101	82.9	66.9	98	92.1	97	97.5	106	73.1	78.8	54.8	94.5	65.9
N#CC[C@H](C1CCCC1)n1cc(-c2ncnc3[nH]ccc23)cn1 [ruxolitinib] + O=C(Nc1cc(C(F)(F)F)cc(C(F)(F)F)c1)c1cc(Cl)ccc1O [IMD0354] (first compound 5 µM, partner dose 0.08 µM)	75	77.5	81.5	107	81.7	67.7	77.3	72.5	84.7	68.2	103	91.7	92.4	51.2	79.4	114	117	76	80.5	85.1
CC[C@]1(O)C[C@H]2CN(CCc3c([nH]c4ccccc34)[C@@](C(=O)OC)(c3cc4c(cc3OC)N(C=O)[C@H]3[C@@](O)(C(=O)OC)[C@H](OC(C)=O)[C@]5(CC)C=CCN6CC[C@]43[C@@H]65)C2)C1 [vincristine] + O=C(CCCCCCC(=O)Nc1ccccc1)NO [vorinostat] (first compound 0.0005 µM, partner dose 0.4 µM)	75.2	76.3	81.9	74.8	61.8	84.7	87.2	78.6	38.8	96.2	40.4	71.5	46.2	71.3	65.2	62.9	58.6	45.9	64.1	53.2
Cc1cc(Nc2cc(N3CCN(C)CC3)nc(Sc3ccc(NC(=O)C4CC4)cc3)n2)n[nH]1 [Tozasertib] + CS(=O)(=O)CCNCc1ccc(-c2ccc3ncnc(Nc4ccc(OCc5cccc(F)c5)c(Cl)c4)c3c2)o1 [lapatinib] (first compound 0.03 µM, partner dose 4 µM)	62.3	64.3	81	62	73.2	71.5	43.4	60.4	37	81.9	45.7	66.5	81.8	38.8	82.5	54.4	39.9	66.1	49.9	60.4
N#CC[C@H](C1CCCC1)n1cc(-c2ncnc3[nH]ccc23)cn1 [ruxolitinib] + Nc1cccc2c1CN(C1CCC(=O)NC1=O)C2=O [lenalidomide] (first compound 5 µM, partner dose 5 µM)	107	89.9	93.7	138	142	89.3	91.2	95.9	80.1	76	99.6	98.7	87.5	86.9	103	104	101	91.3	94.6	86.7
